pIC50: −log10 of the molar value. IC50 is the fitted dose that halves viability relative to control wells, and lower means more sensitive; where the fit passes the top or lowest dose, that dose stands as a limit. AUC is the area under the same curve over the 256-fold range up to the top dose, as a fraction; the more sensitive the line, the further below 1. A top dose marked as inferred was calculated from the reported fits. For part of these data: Drugs with an entry number were screened twice under separate entries, and the two screens often disagree.
Experiments:
Experiment in all cases: Viability of human cancer cell lines after 72 h of drug (GDSC screen)
Shikonin = compound: CC(C)=CC[C@@H](O)C1=CC(=O)c2c(O)ccc(O)c2C1=O [Shikonin]; conditions: top dose 16 µM; top dose inferred
Description: (§1)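 Human cancer cell lines in 384-well plates, medium with 10% serum, drug for 72 h over a 256-fold dose range (nine 2-fold or five 4-fold steps up to the top dose). Adherent lines were fixed and stained with the nucleic acid dye Syto60, suspension lines read with resazurin; signal relative to control wells, capped at 0 and 100%. One two-parameter sigmoid per drug and line, fitted in a mixed model over all curves with the slope shared within a line.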

CGP-082996 (CINK4) = compound: CCNc1cc(NC2CCC(O)CC2)nc(Nc2ccc3c(ccn3Cc3ccccc3)c2)n1 [CGP-082996 (CINK4)]; conditions: top dose 5.12 µM; top dose inferred
Description: as §1

A-770041 = compound: COc1cc(-c2nn([C@H]3CC[C@H](N4CCN(C(C)=O)CC4)CC3)c3ncnc(N)c23)ccc1NC(=O)c1cc2ccccc2n1C [A-770041]; conditions: top dose 5.12 µM; top dose inferred
Description: as §1

XMD8-85 = compound: COc1cc(N2CCN(C)CC2)ccc1Nc1ncc2c(n1)N(C)c1ccccc1C(=O)N2C [XMD8-85]; conditions: top dose 8 µM; top dose inferred
Description: as §1

BMS-536924 = compound: Cc1cc(N2CCOCC2)cc2[nH]c(-c3c(NC[C@@H](O)c4cccc(Cl)c4)cc[nH]c3=O)nc12 [BMS-536924]
Description: as §1

BIRB 0796 = compound: Cc1ccc(-n2nc(C(C)(C)C)cc2NC(=O)Nc2ccc(OCCN3CCOCC3)c3ccccc23)cc1 [BIRB 0796]; conditions: top dose 10 µM; top dose inferred
Description: as §1

SB-525334 = compound: Cc1cccc(-c2[nH]c(C(C)(C)C)nc2-c2ccc3nccnc3c2)n1 [SB-525334]; conditions: top dose 20 µM; top dose inferred
Description: as §1

VX-702 = compound: NC(=O)c1ccc(N(C(N)=O)c2c(F)cccc2F)nc1-c1ccc(F)cc1F [VX-702]; conditions: top dose 2 µM; top dose inferred
Description: as §1

Olaparib = compound: O=C(c1cc(Cc2n[nH]c(=O)c3ccccc23)ccc1F)N1CCN(C(=O)C2CC2)CC1 [Olaparib]
Description: as §1

Wee1 inhibitor 681640 = compound: O=C1NC(=O)c2c1c(-c1ccccc1Cl)cc1[nH]c3ccc(O)cc3c21 [Wee1 inhibitor 681640]; conditions: top dose 2 µM; top dose inferred
Description: as §1

[1] = top dose 4 µM, screen: GDSC drug entry 1091, top dose inferred
[2] = top dose 5.12 µM, screen: GDSC drug entry 62
[3] = top dose 5 µM, screen: GDSC drug entry 1017, top dose inferred
[4] = top dose 10 µM, screen: GDSC drug entry 1495

Cell Line | AUC (Shikonin) | pIC50 (Shikonin) | AUC (CGP-082996 (CINK4)) | pIC50 (CGP-082996 (CINK4)) | AUC (A-770041) | pIC50 (A-770041) | AUC (XMD8-85) | pIC50 (XMD8-85) | AUC (BMS-536924; [1]) | pIC50 (BMS-536924; [1]) | AUC (BMS-536924; [2]) | pIC50 (BMS-536924; [2]) | AUC (BIRB 0796) | pIC50 (BIRB 0796) | AUC (SB-525334) | pIC50 (SB-525334) | AUC (VX-702) | pIC50 (VX-702) | AUC (Olaparib; [3]) | pIC50 (Olaparib; [3]) | AUC (Olaparib; [4]) | pIC50 (Olaparib; [4]) | AUC (Wee1 inhibitor 681640) | pIC50 (Wee1 inhibitor 681640)
BV-173 (chronic myeloid leukaemia, suspension) | 0.377 | 6.32 | 0.869 | 5.42 | 0.533 | 6.41 | 0.887 | 5.15 | 0.916 | < 5.40 | 0.891 | 5.32 | 0.966 | < 5.00 | 0.986 | < 4.70 | 0.921 | < 5.70 | 0.747 | 5.84 | 0.798 | 5.38 | 0.856 | 5.88
CA46 (Burkitt lymphoma, suspension) | 0.254 | 6.73 | 0.915 | < 5.29 | 0.916 | < 5.29 | 0.917 | < 5.10 | 0.892 | < 5.40 | 0.909 | < 5.29 | 0.985 | < 5.00 | 0.88 | < 4.70 | 0.978 | < 5.70 | 0.983 | < 5.30 | 0.975 | < 5.00 | 0.985 | < 5.70
CCRF-CEM (lymphoblastic leukaemia, suspension) | 0.45 | 6.13 | 0.978 | < 5.29 | 0.966 | < 5.29 | 0.931 | < 5.10 | 0.972 | < 5.40 | 0.981 | < 5.29 | 0.984 | < 5.00 | 0.987 | < 4.70 | 0.973 | < 5.70 | 0.923 | < 5.30 | 0.954 | < 5.00 | 0.932 | < 5.70
CESS (acute myeloid leukaemia, suspension) | 0.489 | 6.03 | 0.98 | < 5.29 | 0.954 | < 5.29 | 0.877 | 5.21 | 0.948 | < 5.40 | 0.955 | < 5.29 | 0.989 | < 5.00 | 0.949 | < 4.70 | 0.991 | < 5.70 | 0.986 | < 5.30 | 0.943 | < 5.00 | 0.989 | < 5.70
CHP-126 (neuroblastoma, suspension) | 0.473 | 6.07 | 0.986 | < 5.29 | 0.905 | < 5.29 | 0.927 | < 5.10 | 0.986 | < 5.40 | 0.871 | 5.30 | 0.987 | < 5.00 | 0.824 | 4.91 | 0.97 | < 5.70 | 0.987 | < 5.30 | 0.948 | < 5.00 | 0.955 | < 5.70
CMK (acute myeloid leukaemia, suspension) | 0.371 | 6.33 | 0.884 | 5.39 | 0.99 | < 5.29 | 0.836 | 5.38 | 0.989 | < 5.40 | 0.663 | 6.08 | 0.99 | < 5.00 | 0.951 | < 4.70 | 0.99 | < 5.70 | 0.977 | < 5.30 | 0.972 | < 5.00 | 0.962 | < 5.70
COLO-320-HSR (large intestine, suspension) | 0.553 | 5.86 | 0.988 | < 5.29 | 0.945 | < 5.29 | 0.951 | < 5.10 | 0.852 | 5.60 | 0.548 | 6.37 | 0.992 | < 5.00 | 0.95 | < 4.70 | 0.99 | < 5.70 | 0.99 | < 5.30 | 0.985 | < 5.00 | 0.989 | < 5.70
COLO-824 (breast, adherent) | 0.412 | 6.24 | 0.955 | < 5.29 | 0.939 | < 5.29 | 0.982 | < 5.10 | 0.889 | < 5.40 | 0.987 | < 5.29 | 0.988 | < 5.00 | 0.865 | 4.74 | 0.986 | < 5.70 | 0.988 | < 5.30 | 0.982 | < 5.00 | 0.984 | < 5.70
COR-L88 (small cell lung carcinoma, adherent) | 0.749 | 5.22 | 0.96 | < 5.29 | 0.937 | < 5.29 | 0.984 | < 5.10 | 0.983 | < 5.40 | 0.968 | < 5.29 | 0.986 | < 5.00 | 0.94 | < 4.70 | 0.971 | < 5.70 | 0.983 | < 5.30 | 0.969 | < 5.00 | 0.979 | < 5.70
CP66-MEL (melanoma, adherent) | 0.551 | 5.85 | 0.948 | < 5.29 | 0.972 | < 5.29 | 0.93 | < 5.10 | 0.898 | < 5.40 | 0.933 | < 5.29 | 0.967 | < 5.00 | 0.585 | 5.66 | 0.986 | < 5.70 | 0.983 | < 5.30 | 0.96 | < 5.00 | 0.986 | < 5.70
CPC-N (small cell lung carcinoma, suspension) | 0.839 | 4.90 | 0.979 | < 5.29 | 0.954 | < 5.29 | 0.913 | < 5.10 | 0.816 | 5.61 | 0.771 | 5.67 | 0.984 | < 5.00 | 0.935 | < 4.70 | 0.946 | < 5.70 | 0.985 | < 5.30 | 0.965 | < 5.00 | 0.888 | < 5.70
CTB-1 (B-cell lymphoma, suspension) | 0.481 | 6.06 | 0.947 | < 5.29 | 0.842 | < 5.29 | 0.848 | < 5.10 | 0.938 | < 5.40 | 0.898 | < 5.29 | 0.979 | < 5.00 | 0.741 | 5.09 | 0.95 | < 5.70 | 0.962 | < 5.30 | 0.957 | < 5.00 | 0.871 | < 5.70
CTV-1 (acute myeloid leukaemia, suspension) | 0.763 | 5.33 | 0.952 | < 5.29 | 0.019 | > 7.70 | 0.959 | < 5.10 | 0.866 | 5.61 | 0.831 | 5.62 | 0.992 | < 5.00 | 0.844 | 4.98 | 0.965 | < 5.70 | 0.958 | < 5.30 | 0.964 | < 5.00 | 0.946 | < 5.70
D-283MED (medulloblastoma, adherent) | 0.514 | 5.96 | 0.982 | < 5.29 | 0.962 | < 5.29 | 0.847 | 5.29 | 0.979 | < 5.40 | 0.931 | < 5.29 | 0.986 | < 5.00 | 0.991 | < 4.70 | 0.967 | < 5.70 | 0.936 | < 5.30 | 0.959 | < 5.00 | 0.845 | 5.90
D-502MG (glioma, adherent) | 0.729 | 5.18 | 0.966 | < 5.29 | 0.965 | < 5.29 | 0.873 | < 5.10 | 0.867 | < 5.40 | 0.928 | < 5.29 | 0.926 | < 5.00 | 0.95 | < 4.70 | 0.973 | < 5.70 | 0.977 | < 5.30 | 0.847 | < 5.00 | 0.917 | < 5.70
DB (B-cell lymphoma, suspension) | 0.428 | 6.21 | 0.91 | < 5.29 | 0.983 | < 5.29 | 0.941 | < 5.10 | 0.976 | < 5.40 | 0.983 | < 5.29 | 0.845 | 5.06 | 0.907 | < 4.70 | 0.847 | 5.75 | 0.897 | < 5.30 | 0.901 | < 5.00 | 0.769 | 6.07
DEL (lymphoid neoplasm, suspension) | 0.187 | 6.81 | 0.904 | 5.37 | 0.944 | < 5.29 | 0.93 | < 5.10 | 0.918 | 5.42 | 0.849 |  | 0.993 | < 5.00 | 0.984 | < 4.70 | 0.994 | < 5.70 | 0.992 | < 5.30 | 0.901 | 5.09 | 0.994 | < 5.70
DJM-1 (skin, adherent) | 0.711 | 5.41 | 0.936 | < 5.29 | 0.988 | < 5.29 | 0.908 | < 5.10 |  |  | 0.909 | < 5.29 | 0.983 | < 5.00 | 0.973 | < 4.70 | 0.978 | < 5.70 | 0.954 | < 5.30 | 0.899 | < 5.00 | 0.934 | < 5.70
DMS-79 (small cell lung carcinoma, suspension) | 0.965 | < 4.80 | 0.953 | < 5.29 | 0.971 | < 5.29 | 0.959 | < 5.10 | 0.983 | < 5.40 | 0.98 | < 5.29 | 0.987 | < 5.00 | 0.919 | < 4.70 | 0.987 | < 5.70 | 0.969 | < 5.30 | 0.917 | < 5.00 | 0.97 | < 5.70
DSH1 (bladder, adherent) | 0.783 | 5.19 | 0.961 | < 5.29 | 0.953 | < 5.29 | 0.929 | < 5.10 | 0.974 | < 5.40 | 0.962 | < 5.29 | 0.989 | < 5.00 | 0.984 | < 4.70 | 0.984 | < 5.70 | 0.984 | < 5.30 | 0.988 | < 5.00 | 0.96 | < 5.70
